# Data published in PubChem BioAssay AID1508642 (National Center for Advancing Translational Sciences (NCATS), 2021).
# Out of some 43,000 compounds screened, about 200 (0.47%) were called active. Another 12% or so got no clear call; they are omitted. Calls come from the whole dose curve; as a rule, active = well fitted cell-killing curve with a large enough effect; inconclusive = small, poorly fitted or top-dose-only effect, or effect the other way; inactive = flat fitted curve, though single readings scatter. The list shows a part of the results.
# Assay: Cell viability qHTS assay in S16 Pmp22-F2sN cells; note: nearly all actives have a fitted effect of over 65% in size
# Details: S16 Pmp22-F2sN Schwann cells (luciferase reporters placed in the Pmp22 gene) viability, CellTiter-Glo, 24 h; series mostly up to 57.5 µM; activity change, negative = cytotoxicity: at the top concentration
# Procedure, shortened: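 CellTiter-Glo counter-screen, qHTS, 1536-well. Cells: S16(c9) Pmp22-F2sN, 500-1,000/well in DMEM + 10% FBS. Cpd 23 nL pin transfer, 24 h, 37C/5% CO2. Read: luminescence, CCD imager.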
# % is set by controls: 0 for no effect and ±100 for the full control effect.
row,Compound,"activity change, negative = cytotoxicity"
1,Cc1ccc(NC(=O)CN2C(=O)CCc3cc(S(=O)(=O)N4CCCCC4)ccc32)cc1N(C)C,inactive: -23.5%
2,COc1ccc(NC(=O)c2cc(-c3ccccc3O)no2)cc1,inactive: -3.17%
3,CCCNc1ccc(-c2nc(-c3ccncc3)no2)cc1[N+](=O)[O-],inactive: 1.59%
4,CCOc1ccc(-c2cc(C(=O)NCc3ccc(C)cc3)c3ccccc3n2)cc1,inactive: -0.492%
5,CCOc1ccc(Cl)cc1C1CC(=O)Nc2cc(OC)c(OC)c(OC)c21 (stereo not drawn),inactive: 0.793%
6,CCn1c(SCc2ccccc2F)nc(=O)c2c(C(=O)OC)cc(C3CC3)nc21,inactive: -6.84%
7,Cc1ccc(C)c(N2CCN(C(=O)c3ccc4[nH]c(C)c(C)c4c3)CC2)c1,inactive: 0.596%
8,CCOC(=O)C1CCCN(C(=O)Cn2ncc3c([nH]c4ccc(C)cc43)c2=O)C1 (stereo not drawn),inactive: 4.65%
9,Cc1ccc(CCNC(=O)c2ccc(CSCc3ccccc3C)o2)cc1,inactive: -0.711%
10,CCC1CN(C(=O)N2CCC(C(=O)O)CC2)c2cc(C)ccc2O1 (stereo not drawn),inactive: -5.84%
11,Cc1ccc2nc(-c3ccc(NC(=O)COc4ccc(Cl)c(C)c4)cc3)sc2c1,inactive: 16.2%
12,COc1ccc(Nc2cc(C)c3cc(NC(=O)Cc4c(F)cccc4Cl)ccc3n2)cc1,inactive: 2.47%
13,CCN(Cc1ccccc1)C(=O)C1CCN(S(=O)(=O)c2c(C)noc2/C=C/c2ccc(C)cc2)CC1,inactive: -18%
14,CCOC(=O)c1ccc(NC(=O)C2CCN(S(=O)(=O)c3ccc(C)cc3)CC2)cc1,inactive: 4.29%
15,CC(=O)c1nn(-c2ccc(OC(F)(F)F)cc2)nc1Nc1ccc(C)cc1,inactive: 3.87%
16,COc1ccccc1CNC(=O)CS(=O)Cc1nc(-c2ccc(OC)c(OC)c2)oc1C (stereo not drawn),inactive: -29.7%
17,COc1ccccc1CNC(=O)c1sc2nc3n(c(=O)c2c1C)CCC3,inactive: 1.68%
18,CCOc1ccc(CNS(=O)(=O)c2ccc(-c3cc(C(F)(F)F)on3)s2)cc1,inactive: 8.37%
19,CCOC(=O)c1c(S(=O)(=O)N2CCCC(C(=O)Nc3ccc(C)cc3C)C2)c(C)n(CC)c1C (stereo not drawn),inactive: 8.45%
20,COC(=O)c1ccc(C2c3c(oc4cc(C)c(C)cc4c3=O)C(=O)N2c2ccccn2)cc1 (stereo not drawn),inactive: -0.0786%
21,Cc1cc(C)c(NC(=O)CSc2nnc3[nH]c(=O)cc(C)n23)c(C)c1,inactive: -4.53%
22,O=c1c2ccccc2n2c(-c3ccc(F)c(F)c3)nnc2n1CCc1ccccc1,inactive: 3.99%
23,CCOC(=O)c1ccccc1NC1(c2ccc(OC)cc2)C(=O)c2ccccc2C1=O,inactive: -13.8%
24,CCC(=O)Nc1ccc2nc(SCC(=O)N3CCc4ccccc43)sc2c1,inactive: 7.85%
25,COc1ccc(CCC(=O)NC2CC(=O)N(c3ccc(C)c(C)c3)C2)cc1 (stereo not drawn),inactive: 10.1%

row,Compound,"activity change, negative = cytotoxicity"
1,Cc1ccc(NC(=O)c2sc3nc(-c4ccc(F)cc4)cn3c2C)c(C)c1,inactive: 9.38%
2,O=C(NCc1ccc(Cl)cc1)C(=O)NCC(c1ccco1)S(=O)(=O)c1cccs1 (stereo not drawn),inactive: -22.7%
3,CCCCNC(=O)c1ccc2c(=O)n(-c3ccccc3)c(=O)[nH]c2c1,inactive: 2.17%
4,CCOc1ccc(S(=O)(=O)Nc2ccc3c(c2)c(C(C)=O)c(C)n3S(=O)(=O)c2ccc(OCC)cc2)cc1,inactive: -22.3%
5,Cc1cc(C)c(NC(=O)Cn2c(=O)n(CCC(=O)NCc3ccc4c(c3)OCO4)c(=O)c3ccccc32)c(C)c1,inactive: -1.27%
6,CC(=O)Nc1ccc(C(=O)CSc2nnc3cc(C)c4ccccc4n23)cc1,inactive: 3.6%
7,CCc1ccc(NC(=O)C2CCCN(S(=O)(=O)c3c(C)[nH]c(=O)[nH]c3=O)C2)cc1 (stereo not drawn),inactive: 16%
8,COC(=O)c1ccc(Cn2nc(-c3ccc(C)c(C)c3)ccc2=O)cc1,inactive: -2.85%
9,O=C(CCS(=O)(=O)c1cc2c3c(c1)CCN3C(=O)CC2)NCc1ccc(F)cc1,inactive: 19.9%
10,COCCc1nn2c(=O)cc(COC(=O)COc3ccccc3C)nc2s1,inactive: 9.22%
11,COc1ccc(Cl)cc1Nc1ncnc2c1nc1n2CCCC1,inactive: 6.23%
12,O=C(Nc1noc2ccccc12)c1cccc(F)c1,inactive: 19.7%
13,CC(C)c1ccc(NC(=O)C2CCCN(S(=O)(=O)c3cccc4nonc34)C2)cc1 (stereo not drawn),inactive: 6.04%
14,O=C1C(c2ccc(F)cc2)N(CCc2ccccc2)C(=O)CN1C1CCCCC1 (stereo not drawn),inactive: -8.59%
15,COc1ccc(CN(C(=O)Nc2ccc(C)c(F)c2)C2CCN(C(C)=O)CC2)cc1,inactive: 8.07%
16,CC(C)c1ccc(C(=O)Nc2cccc3cccnc23)cc1,inactive: 16.8%
17,CCc1ccc(NC(=O)Cn2nnc(C(=O)NCc3ccco3)c2N)cc1,inactive: -0.237%
18,Cc1ccccc1C(=O)Nc1nnc(SCc2cc(=O)c3c(C)ccc(C)c3[nH]2)s1,inactive: -20.1%
19,COc1cccc(COC(=O)c2ccc(-c3nnn(Cc4ccccc4)n3)cc2)c1,inactive: -1.29%
20,CC1CCN(S(=O)(=O)c2cc(C(=O)NCc3ccc(F)cc3)n(C)c2)CC1,inactive: 10.2%
21,CCC1CN(C(=O)N2CCC(C(=O)NCCOC)CC2)c2ccccc2O1 (stereo not drawn),inactive: -5%
22,Cc1ccc(NC(=O)CCS(=O)(=O)c2ccc3nc(C)sc3c2)cc1,inactive: 5.99%
23,CCOc1ccc(CCNS(=O)(=O)c2c(C)nc3sc(C)cn3c2=O)cc1OCC,inactive: 16.6%
24,CC(=O)c1ccc(NC(=O)CCc2c(C)nn(-c3ccc4nncn4n3)c2C)cc1,inactive: 8.93%
25,CSc1ccc(CCNC(=O)c2cc3n(n2)CCCN(Cc2ccc(C)cc2)C3=O)cc1,inactive: -1.39%

row,Compound,"activity change, negative = cytotoxicity"
1,CCOc1ccccc1N1CC(c2nc3ccccc3n2CCCOc2ccccc2OC)CC1=O (stereo not drawn),inactive: 3.29%
2,COc1cccc(CNC(=O)Cn2ccc3cc(S(=O)(=O)N4CCCC4)ccc32)c1,inactive: 20.5%
3,O=C(Nc1sc2c(c1C(=O)NCc1ccccc1)CCCC2)c1cc(=O)c2cc(Cl)ccc2o1,inactive: 16.3%
4,CCc1ccccc1N1CC(c2nc3ccccc3n2Cc2cccc(C)c2)CC1=O (stereo not drawn),inactive: -9.55%
5,N#Cc1ccccc1Cn1nnc2c(=O)[nH]c(C3CCCN(S(=O)(=O)c4ccc(F)cc4)C3)nc21 (stereo not drawn),inactive: 0.286%
6,O=C(Nc1cccnc1Cl)c1cc(-c2ccc(Cl)cc2)on1,inactive: 11.9%
7,O=C(NCc1ccccc1)C1CCC(CNS(=O)(=O)c2ccc(Br)s2)CC1 (stereo not drawn),inactive: 17.1%
8,CC1CCc2nn(CC(=O)Nc3cccc(C(F)(F)F)c3)c(=O)cc2C1 (stereo not drawn),inactive: 4.42%
9,COc1cc(NC(=O)Cn2c(=O)n(C(C)C)c(=O)c3oc4ccccc4c32)cc(OC)c1,inactive: 21.5%
10,CCOc1ccc(N2CC(c3nc4ccccc4n3CC(C)C)CC2=O)cc1 (stereo not drawn),inactive: -2.46%
11,COc1cccc(CNC(=O)c2c(O)nc3ccccn3c2=O)c1,inactive: -2.15%
12,COc1cc(NC(=O)CCNS(=O)(=O)c2ccc3c(c2)CCN3C(=O)C2CC2)cc(OC)c1,inactive: 0.615%
13,COCC(=O)N1CCc2cc(OC)c(OC)cc2C1COc1ccc2c(C)cc(=O)oc2c1 (stereo not drawn),inactive: 0.82%
14,COc1cc(-c2noc(-c3ccc(NCCc4ccccc4)c([N+](=O)[O-])c3)n2)cc(OC)c1OC,inactive: 10.1%
15,O=c1oc2ccc(Br)cc2cc1-c1nc(-c2ccccc2)no1,inactive: -3.38%
16,CCS(=O)(=O)N1CC(=O)N(c2ccc(C)c(C)c2)C(C)(C(=O)NC2CCCCC2)C1 (stereo not drawn),inactive: 1.34%
17,CCC(C)NC(=O)C1CCC(CNS(=O)(=O)c2cccc3nsnc23)CC1 (stereo not drawn),inactive: -3.53%
18,COc1ccc(C(=O)c2oc3ccccc3c2NC(=O)COc2c(C)cc(C)cc2C)cc1,inactive: -0.409%
19,Cc1cccc(NC(=O)CSc2nc3c(oc4ccccc43)c(=O)n2C(C)C)c1,inactive: -15.1%
20,COc1ccc(N2CCN(C(c3ccccc3)c3nnc(-c4ccccc4Cl)o3)CC2)cc1 (stereo not drawn),inactive: 1.81%
21,CC1=C(C(=O)NCCc2ccc(Cl)cc2)C2(CCCCC2)OC1=O,inactive: -3.53%
22,COc1cccc(CNC(=O)Cn2ncc3c4ccccc4n(C)c3c2=O)c1,inactive: 9.69%
23,COCCNC(=O)CCCn1c(SCC(=O)Nc2cccc(C)c2)nc2c(sc3ccccc32)c1=O,inactive: -3.16%
24,COc1cccc(C(=O)Nc2nnc(S(=O)(=O)N3CCOCC3)s2)c1,inactive: -9.67%
25,CCCCOc1cccc(C(=O)Nc2cccc3ccc(C)nc23)c1,inactive: 9.94%

row,Compound,"activity change, negative = cytotoxicity"
1,Cc1ccc(CS(=O)(=O)Cc2ccc(C(=O)NCCc3ccc(Cl)cc3)o2)cc1,inactive: -0.583%
2,CCOC(=O)c1c(C)[nH]c(C)c1S(=O)(=O)N1CCC(C(=O)Nc2ccccn2)CC1,inactive: 19.9%
3,Cc1ccc2oc(=O)n(CCNC(=O)Nc3ccccc3Cl)c2c1,inactive: -11.7%
4,COc1ccc(C2CC(=O)Nc3c2c(=O)nc2c(C)cccn32)cc1 (stereo not drawn),inactive: 15.3%
5,Cc1cc(C)c2c(=O)cc(C(=O)Nc3ccccc3Cl)oc2c1,inactive: 9.86%
6,Cc1ccc2c(CC(=O)Nc3cc(C(F)(F)F)ccc3Cl)coc2c1C,inactive: -4.76%
7,CCC12CN3CC(CC)(CN(C1)C3c1ccc(OCc3ccccc3)cc1)C2=O (stereo not drawn),inactive: 3.7%
8,O=C(Cn1nnc2sc3c(c2c1=O)CCCC3)Nc1ccc(F)c(Cl)c1,inactive: -4.24%
9,CCCS(=O)(=O)NCCc1csc2nc(-c3ccc(OC)cc3)nn12,inactive: -22.6%
10,COc1ccc(C2NC(=O)NC(C)=C2C(=O)Nc2cc(C)cc(C)c2)c(OC)c1 (stereo not drawn),inactive: -5.44%
11,Cc1ccccc1CNC(=O)CCCn1nc(C)c2sc3ccccc3c2c1=O,inactive: 9.2%
12,CCc1c(C)nc2nncn2c1Nc1ccc(C)c(F)c1,inactive: -11.3%
13,COc1ccccc1N(CC(=O)NCCSCc1ccc(Cl)cc1)S(C)(=O)=O,inactive: 0.264%
14,CN(Cc1ccccc1)c1ncnc2c1nc1n2CCCC1,inactive: 2.91%
15,COc1ccccc1NC(=O)N(Cc1ccco1)C1CCN(C(C)=O)CC1,inactive: 9.36%
16,CCOc1cc(C#N)c(NC(=O)c2ccc(OC)c(S(=O)(=O)N3CCCC3)c2)cc1OCC,inactive: 15.1%
17,O=S(=O)(c1ccccc1)c1nc(-c2ccc(F)cc2)oc1N1CCOCC1,inactive: 5.1%
18,Cc1nc2cc(-c3cccc(F)c3)nn2c(C)c1CCC(=O)N1CCN(c2ccc(F)cc2)CC1,inactive: 6.48%
19,Cc1ccc(NC(=O)c2ncn(-c3ccccc3)n2)c(Cl)c1,inactive: 9.88%
20,Cc1cccc(-c2noc(CN(C(=O)c3ccc(C)c(C)c3)C(C)C)n2)c1,inactive: -3.83%
21,COc1ccc(C)cc1N(C)C(=O)c1sc2nc3n(c(=O)c2c1C)CCCCC3,inactive: 6.34%
22,Cc1ccc(NC(=O)c2ccc3nc(Cc4ccccc4)oc3c2)cc1F,inactive: 5.45%
23,CCN(CC)c1ccc2cc(-c3nnc(-c4cccc(Cl)c4)o3)c(=O)oc2c1,inactive: -19.3%
